From patent US20090036382A1 (UNIVERSITA DEGLI STUDI DI PADOVA, published 2009)

Molecular target: T1, endogenous emilin1 physiologically produced by HEK293T cells (UniProt Q9Y6C2 22-1016)
T1 construct: Not overexpressed; detected with anti-emilin1 antibody
T1 sequence (looked up): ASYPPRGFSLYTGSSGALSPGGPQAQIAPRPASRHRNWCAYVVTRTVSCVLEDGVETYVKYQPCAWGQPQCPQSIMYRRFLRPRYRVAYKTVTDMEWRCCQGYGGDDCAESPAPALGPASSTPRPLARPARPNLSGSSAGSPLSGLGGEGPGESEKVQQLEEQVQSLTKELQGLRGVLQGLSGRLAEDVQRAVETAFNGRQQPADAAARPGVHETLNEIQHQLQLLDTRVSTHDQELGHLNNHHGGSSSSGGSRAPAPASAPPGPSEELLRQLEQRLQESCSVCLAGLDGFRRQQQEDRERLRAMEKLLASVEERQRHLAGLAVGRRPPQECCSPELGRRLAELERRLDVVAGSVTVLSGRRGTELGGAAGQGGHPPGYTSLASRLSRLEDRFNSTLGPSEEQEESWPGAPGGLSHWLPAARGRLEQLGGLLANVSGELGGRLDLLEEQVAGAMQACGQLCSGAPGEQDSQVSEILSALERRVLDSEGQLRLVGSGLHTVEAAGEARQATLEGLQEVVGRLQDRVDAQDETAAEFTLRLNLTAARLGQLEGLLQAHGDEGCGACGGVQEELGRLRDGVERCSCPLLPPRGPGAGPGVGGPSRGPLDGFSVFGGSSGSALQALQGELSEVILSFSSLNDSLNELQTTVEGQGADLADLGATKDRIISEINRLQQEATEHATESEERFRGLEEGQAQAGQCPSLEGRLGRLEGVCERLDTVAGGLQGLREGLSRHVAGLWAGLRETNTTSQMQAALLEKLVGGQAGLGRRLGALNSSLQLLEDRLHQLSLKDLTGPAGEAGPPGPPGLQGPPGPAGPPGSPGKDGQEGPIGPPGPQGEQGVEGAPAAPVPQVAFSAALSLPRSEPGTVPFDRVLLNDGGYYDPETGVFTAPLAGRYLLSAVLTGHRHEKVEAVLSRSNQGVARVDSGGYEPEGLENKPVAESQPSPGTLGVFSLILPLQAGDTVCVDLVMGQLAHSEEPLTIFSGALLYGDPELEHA
Test: immunoprecipitation of the culture medium with anti-LAP antibody, western blot with anti-emilin1 antibody
Text: Panel C: Immunoprecipitation of endogenous emilin after assembly with proTGF-β produced upon transfection. HEK293 cells were transfected with proTGF-β and culture medium was immunoprecipitated with anti-LAP antibodies. The immunoprecipitate was detected by Western-blot with anti-Flag antibody, that recognizes proTGF-β, or with anti-emilin1 antibody. Lane 1: control of immunoprecipitation specificity, lacking anti-LAP antibody (−); lane 2: Immunoprecipitation with anti-LAP antibody.
To ascertain that TGF-β interaction with emilin1 also occurs under physiological conditions of emilin 1 expression, HEK293T cells were transfected with the pro TGF-β encoding plasmid and culture medium was subjected to immunoprecipitation with anti-LAP antibody followed by western blotting with anti-LAP or anti-emilin1 (lower inset). Results are presented in FIG. 4C, showing that TGF-β co-precipitates also endogenous emilin1 (not overexpressed as result of transfection) physiologically produced by HEK293T cells. Therefore, it can be concluded that the interaction of pro TGF-β with emilin1 occurs also in presence of physiological levels of emilin1 expression.

binding result: binds
B1: pro TGF-β1 (human TGF-β1 precursor) (ligand)
chain: not shown
notes: Expressed from pCDNA3.1 in HEK293T cells; It is treated here as one molecule; also called TGF-β precursor; Flag-proTGF-β1
